# Results from patent US11286261B2, “Fourth-generation EGFR tyrosine kinase inhibitor” (NAGASAKI UNIVERSITY, priority 2017, dated 2022).
# Key:
# [1] = test system: EGFR (T790M/L858R/C797S) gene-transfected BaF3 cell; experiment: proliferation inhibitory activity using EGFR (T790M/L858R/C797S) gene-transfected BaF3 cell (MTT); format: cell-based; conditions: Mus musculus, 96 h, +IL-3, 4 days
# [2] = test system: EGFR (L858R/T790M) gene-transfected BaF3 cell; experiment: proliferation inhibitory activity using EGFR (L858R/T790M) gene-transfected BaF3 cell (MTT); format: cell-based; conditions: Mus musculus, 96 h, +IL-3, 4 days
# [3] = test system: EGFR (del exon19/T790M) gene-transfected BaF3 cell; experiment: proliferation inhibitory activity using EGFR (del exon19/T790M) gene-transfected BaF3 cell (MTT); format: cell-based; conditions: Mus musculus, 96 h, +IL-3, 4 days
# [4] = test system: A549 cells expressing wild-type EGFR; experiment: proliferation inhibitory activity in EGFR wild-type A549 (MTT); format: cell-based
# Protocol: (§1) The proliferation inhibitory activity of compound 26d in a lung adenocarcinoma cell line was examined. […] Two days later, 2 μg/mL puromycin was added and resistant cells were selected. These cells and A549 cells expressing wild-type EGFR were seeded in a 96 well microplate (Thermo Fisher Scientific, Inc.) respectively at 3,000 cells/well and 7,500 cells/well, various concentrations of the test compound were added, and the cells were cultured in 150 μL of the medium for 4 days. 15 μL of 5 mg/mL MTT (thiazolyl blue tetrazolium bromide) solution was added to the well, the cells were incubated at 37° C. for 4 hr, 100 μL of 20% SDS was added, and the cells were further incubated overnight.
# [5] = test system: EGFR signal (phosphorylation of EGFR, ERK, AKT) in PC-9 cells expressing EGFR (del exon19/T790M) or EGFR (del exon19/T790M/C797S); experiment: inhibition of EGFR signal by western blotting in PC-9 cells; conditions: 4 hr, FIG. 2
# [6] = test system: EGFR del exon19/T790M gene-transfected PC-9 cell; experiment: proliferation inhibitory activity in EGFR (del exon19/T790M) gene-transfected PC-9 cell (MTT); format: cell-based; conditions: Homo sapiens, 96 h, PC-9 transfected with EGFR del exon19/T790M, 4 days
# Protocol: as §1
# [7] = test system: EGFR L858R/T790M gene-transfected PC-9 cell; experiment: proliferation inhibitory activity in EGFR (L858R/T790M) gene-transfected PC-9 cell (MTT); format: cell-based; conditions: Homo sapiens, 96 h, PC-9 transfected with EGFR L858R/T790M, 4 days
# Protocol: as §1
# [8] = test system: wild-type EGFR gene-introduced BaF3 cell; experiment: proliferation inhibitory activity of compound 26d in wild-type EGFR gene-introduced BaF3 cell (MTT); format: cell-based; conditions: Mus musculus, 96 h, BaF3 EGFR WT, +IL-3 10 ng/mL, 4 days
# Protocol: The selectivity of compound 26d for EGFR with an activating mutation was examined using BaF3 cells expressing wild-type EGFR without an activating mutation. […] Two days later, 1 μg/mL puromycin was added and resistant cells were selected. The cells were washed twice with PBS, seeded in a 96 well microplate (Thermo Fisher Scientific, Inc.) at 30000 cells/well, 10 ng/mL EGF or IL-3 and various concentrations of compound 26d were added and the cells were cultured in 150 μL of the medium for 4 days. 15 μL of 5 mg/mL MTT (thiazolyl blue tetrazolium bromide) solution was added to the well, the cells were incubated at 37° C. for 4 hr, 100 μL of 20% SDS was added, and the cells were further incubated overnight.
# [9] = test system: PC-9 cells expressing EGFR (del exon19/T790M/C797S); experiment: antitumor effect in a mouse xenograft model; format: in vivo, Balb/c nude mouse; conditions: 0.2 mg intraperitoneally every day, nude mice
# Protocol: The therapeutic effect of compound 26d at the animal level was examined using a mouse zenograft model. PC-9 cells expressing EGFR (del exon19/T790M/C797S) were prepared at 5×10^7 cells and mixed with Matrigel (Becton Dickinson Company, LTD.) at 1:1 ratio. These were subcutaneously injected by 100 μL into Balb/c nude mouse (CHARLES RIVER LABORATORIES JAPAN, INC.) After tumor formation was verified, compound 26d (0.2 mg) was intraperitoneally administered every day and the tumor diameters were measured. The tumor volume was calculated by the major axis (mm)×the minor axis (mm)^2/2.
# [10] = test system: EGFR (del exon19/T790M/C797S) gene transfected BaF3 cell; experiment: proliferation inhibitory activity using EGFR (del exon19/T790M/C797S) gene transfected BaF3 cell (MTT); format: cell-based; conditions: Mus musculus, 96 h, +IL-3, 4 days
Compound,IC50 [1] [nM],IC50 [2] [nM],IC50 [3] [nM],"selectivity, PC-9 with activating mutation compared to A549 wild-type EGFR [4]",phosphorylation of AKT in the downstream of EGFR signal [5],phosphorylation of EGFR [5],phosphorylation of ERK in the downstream of EGFR signal [5],IC50 [6] [nM],IC50 [7] [nM],IC50 [8] [nM],body weight during the treatment period ([9]; FIG. 4),"tumor enlargement (tumor volume) ([9]; subcutaneous transplant, FIG. 3)",IC50 [10] [nM]
COc1ccc(-c2c3c4cc(O)c(OCCCN(C)C)cc4oc(=O)c3n3ccc4cc(O)c(OC)cc4c23)cc1O [compound 26b],1830,3050,2170,,,,,,,,,,
COc1ccc(-c2c3c4cc(OCCCN(C)C)c(OCCCN(C)C)cc4oc(=O)c3n3ccc4cc(O)c(OC)cc4c23)cc1O [compound 26d],900,970,920,selective for EGFR with an activating mutation,not obvious,suppressed,suppressed,494,719,902,body weight loss was not observed,suppressed the tumor enlargement,
COc1ccc(-c2c3c4cc(OCCN(C)C)c(OCCN(C)C)cc4oc(=O)c3n3ccc4cc(O)c(OC)cc4c23)cc1O [compound 26c],650,500,260,,,,,,,,,,
COc1ccc(-c2c3c4cc(OC)c(OCCCN(C)C)cc4[nH]c(=O)c3n3ccc4cc(O)c(OC)cc4c23)cc1O [compound 33],130,180,,,,,,,,,,,150
COc1ccc(-c2c3c4cc(OC)c(OCCCN(C)C)cc4oc(=O)c3n3ccc4cc(O)c(OC)cc4c23)cc1O [compound 26a],4360,4510,6560,,,,,,,,,,
